Test results taken from patent publication US7888332B2, “Hydrazide-containing CFTR inhibitor compounds and uses thereof” (The Regents of the University of California, priority 2004, dated 2011).

The molecules below were run against CFTR (Homo sapiens, UniProt P13569) (assay: Short-circuit current (apical Cl− current) analysis on permeabilized CFTR-expressing FRT cells). Details: compared with parent analogs.
Chain of UniProt P13569 (P13569 whole entry): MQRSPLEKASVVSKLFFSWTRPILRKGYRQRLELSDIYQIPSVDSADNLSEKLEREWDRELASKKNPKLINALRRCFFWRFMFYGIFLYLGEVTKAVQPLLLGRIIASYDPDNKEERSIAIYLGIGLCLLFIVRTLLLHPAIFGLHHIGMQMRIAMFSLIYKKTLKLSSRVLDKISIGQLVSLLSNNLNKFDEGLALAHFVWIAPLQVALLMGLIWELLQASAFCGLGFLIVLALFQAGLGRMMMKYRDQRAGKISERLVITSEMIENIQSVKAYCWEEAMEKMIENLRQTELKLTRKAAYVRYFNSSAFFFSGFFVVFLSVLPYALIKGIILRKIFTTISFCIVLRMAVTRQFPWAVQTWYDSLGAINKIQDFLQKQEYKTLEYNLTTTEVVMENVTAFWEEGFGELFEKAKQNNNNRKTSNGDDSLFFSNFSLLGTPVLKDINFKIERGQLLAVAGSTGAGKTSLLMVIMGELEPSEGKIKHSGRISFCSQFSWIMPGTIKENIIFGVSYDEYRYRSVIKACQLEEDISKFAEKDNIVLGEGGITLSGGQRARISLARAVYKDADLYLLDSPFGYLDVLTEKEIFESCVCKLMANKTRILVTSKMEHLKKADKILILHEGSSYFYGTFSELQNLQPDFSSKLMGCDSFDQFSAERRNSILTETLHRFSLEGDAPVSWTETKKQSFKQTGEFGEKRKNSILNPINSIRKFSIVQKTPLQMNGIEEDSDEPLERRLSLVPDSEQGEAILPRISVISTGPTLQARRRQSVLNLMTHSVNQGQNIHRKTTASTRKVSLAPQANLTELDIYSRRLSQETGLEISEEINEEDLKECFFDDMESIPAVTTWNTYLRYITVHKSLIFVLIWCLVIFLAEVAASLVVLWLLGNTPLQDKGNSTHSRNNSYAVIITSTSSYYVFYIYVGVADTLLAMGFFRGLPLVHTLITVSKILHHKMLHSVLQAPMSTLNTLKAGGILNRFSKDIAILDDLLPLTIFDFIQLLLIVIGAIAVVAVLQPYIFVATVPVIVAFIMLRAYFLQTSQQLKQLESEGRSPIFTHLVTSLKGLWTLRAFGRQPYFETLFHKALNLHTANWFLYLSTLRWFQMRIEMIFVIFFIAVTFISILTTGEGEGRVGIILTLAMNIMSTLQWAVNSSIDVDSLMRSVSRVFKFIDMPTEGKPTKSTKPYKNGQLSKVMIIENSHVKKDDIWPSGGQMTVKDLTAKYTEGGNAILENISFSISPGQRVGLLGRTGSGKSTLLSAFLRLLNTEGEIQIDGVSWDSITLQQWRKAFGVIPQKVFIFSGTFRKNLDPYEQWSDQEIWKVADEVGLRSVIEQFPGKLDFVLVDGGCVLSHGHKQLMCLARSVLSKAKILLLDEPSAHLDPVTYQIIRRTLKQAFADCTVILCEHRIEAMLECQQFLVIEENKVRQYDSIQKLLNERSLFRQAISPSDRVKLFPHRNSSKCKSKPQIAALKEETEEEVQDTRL

SMILES | CFTR inhibition, structure-activity statement in words
O=C(CNc1ccc2ccccc2c1)NN=Cc1cc(Br)c(O)c(Br)c1O [GlyH-101, N-2-napthalenyl-[(3,5-dibromo-2,4-dihydroxyphenyl)methylene]glycine hydrazide] | increased inhibition
O=C(CNc1ccc2ccccc2c1)N/N=C/c1cc(Br)c(O)c(Br)c1 [GlyH-102] | Good CFTR inhibition
CC(=NNC(=O)CNc1ccc2ccccc2c1)c1cc(Br)c(O)c(Br)c1 [GlyH-109] | improved CFTR inhibition
O=C(CNc1ccc(Cl)cc1)NN=Cc1cc(Br)c(O)c(Br)c1 [GlyH-114] | Good CFTR inhibition
O=C(CNc1ccc2ccccc2c1)NNC(=O)c1cc(Br)c(O)c(Br)c1O [GlyH-201, 3,5-dibromo-2,4-di-hydroxy-[2-(2-napthalenamine)aceto]benzoic acid hydrazide] | reduced CFTR inhibitory potency
O=C(CNc1ccc2ccccc2c1)NNC(=O)c1cc(Br)c(O)c(Br)c1 [GlyH-202, 3,5-dibromo-4-hydroxy-[2-(2-napthalenamine)aceto]benzoic acid hydrazide] | reduced CFTR inhibitory potency
O=C(CNc1ccc2ccccc2c1)NNCc1cc(Br)c(O)c(Br)c1O [GlyH-301, N-2-napthalenyl-[(3,5-dibromo-2,4-dihydroxyphenyl)methyl]glycine hydrazide] | reduced CFTR inhibitory potency
O=C(CNc1ccc2ccccc2c1)NNCc1cc(Br)c(O)c(Br)c1 [GlyH-302] | reduced CFTR inhibitory potency

More lines, now with the values ahead:

CFTR inhibition, structure-activity statement in words | SMILES
little activity | COc1c(Br)cc(C=NNC(=O)CNc2ccc3ccccc3c2)c(O)c1Br [GlyH-103]
increased inhibition | O=C(CNc1cccc2ccccc12)NN=Cc1cc(Br)c(O)c(Br)c1O [GlyH-104]
Good CFTR inhibition | O=C(CNc1cccc2ccccc12)NN=Cc1cc(Br)c(O)c(Br)c1 [GlyH-105]
